Source: PubChem BioAssay AID1346428 (National Center for Advancing Translational Sciences (NCATS), 2018)
Out of some 48,000 compounds screened, about 1,200 (2.5%) were called active. Another 2% or so got no clear call; they are omitted.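 The calls were made as follows: active = activation of at least 60% and not above a set upper limit (about 1 call in 100 departs from these limits); inconclusive = activation of 40% to 60%, or above that upper limit; inactive = activation under 40%.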 The list shows a part of the results.

What follows are compounds tested against Probable G-protein coupled receptor 32 (Homo sapiens) (UniProt O75388) (assay: qHTS for Agonists of Human Resolvin D1 Receptor DRV1). Conditions: CHO-K1 GPR32 beta-arrestin PathHunter luminescence, 90 min; at 76.9 µM; stronger effect = higher value; zero percent set by DMSO-only wells.
Outline: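 GPR32 activation in stably transfected CHO-K1 cells, detected as beta-arrestin recruitment by enzyme-fragment complementation. Compound exposure: 90 min, 37 °C.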
Also: 0% is about no effect.

Sequence of UniProt O75388 (O75388 whole entry, looked up, the tested form may be a part): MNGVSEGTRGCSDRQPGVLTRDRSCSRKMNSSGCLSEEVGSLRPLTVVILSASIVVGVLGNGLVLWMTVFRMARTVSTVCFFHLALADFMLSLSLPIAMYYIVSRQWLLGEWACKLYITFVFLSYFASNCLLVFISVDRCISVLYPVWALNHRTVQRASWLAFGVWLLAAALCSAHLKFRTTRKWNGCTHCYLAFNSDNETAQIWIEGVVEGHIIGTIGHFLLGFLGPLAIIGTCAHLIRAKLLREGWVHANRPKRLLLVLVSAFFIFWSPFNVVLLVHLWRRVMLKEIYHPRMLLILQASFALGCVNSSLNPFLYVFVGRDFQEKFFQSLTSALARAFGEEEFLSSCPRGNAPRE

activation, inactive:
CCOC(=O)c1c(Nc2cc(C)cc(C)c2)nnc(-c2ccccc2)c1-c1ccccc1 11%
C[C@H](N)C(=O)N[C@@H](C)C(=O)NC1[C@H]2CN(c3nc4c(cc3F)c(=O)c(C(=O)O)cn4-c3ccc(F)cc3F)C[C@@H]12 (stereo partly specified) -1.22%
CCCCC(=O)OC1=C(C(=O)c2ccccc2)N(CC)S(=O)(=O)c2ccccc21 -31.5%
CSc1ccc(CNC(=O)c2cc3cc(S(=O)(=O)N4CCCCC4)ccc3n2C)cc1 -12%
CC1CCN(S(=O)(=O)c2ccc3nc(Nc4ccc(C#N)cc4)ccc3c2)CC1 -15.2%
COc1cccc(CNC(=O)C2CCN(S(=O)(=O)N3CCC(C)CC3)CC2)c1 -5.69%
Cc1cccc(OCCSc2nc(-c3cccs3)nc3cc(=O)[nH]n23)c1 -26.9%
COc1ccccc1N1CCN(S(=O)(=O)c2c(C)nc3sc(C)c(C)n3c2=O)CC1 -1.34%
COc1ccccc1CNS(=O)(=O)c1ccc(F)c(C(=O)Nc2cc(Cl)ccc2OC)c1 -19.6%
O=C(O)c1cc([N+](=O)[O-])ccc1NCCCc1ccccc1 -8.45%
O=C(NCC(c1cccnc1)N1CCc2ccccc2C1)C(=O)Nc1ccccc1 (stereo unspecified) -8.06%
COc1cccc2c1Oc1ncccc1N(C(=O)Nc1cccc(Cl)c1)C2 -23.9%
CC(=O)CC(c1ccc([N+](=O)[O-])cc1)c1c(O)c2ccccc2oc1=O (stereo unspecified) -47.1%
CCCCCCCCNC(C)C(O)c1ccc(SC(C)C)cc1 (stereo unspecified) 42.9%
CCCCC(=O)OC1=C(C(=O)c2ccccc2)N(C)S(=O)(=O)c2ccccc21 -27.7%
COc1ccc(CNS(=O)(=O)c2cnc(N)nc2)cc1 -6.96%
Cc1cccc(CNC(=O)c2ccc3c(c2)N(C)C(=O)C2CCCCN32)c1 (stereo unspecified) 3.18%
O=C(Nc1ccc(F)cc1F)c1cnn(-c2ccc(F)cc2)c1-n1cccc1 -1.86%
CCOc1ccccc1NC(=O)CN1c2ccccc2S(=O)(=O)c2ccccc21 4.15%
Cc1ccc(CNC(=O)c2cc(S(=O)(=O)N3CCCCCC3)cn2C)cc1 -1.58%
Cn1cc(CCCC(=O)NCc2ccccc2Cl)c2ccccc21 -23.2%
CCOC(=O)c1c(NC(=O)CSc2nc(-c3ccccc3)cc(C(F)(F)F)n2)sc(C)c1C -2.26%
CC(=O)Nc1nnc(SCc2cc(=O)c3cccc(Cl)c3[nH]2)s1 -6.46%
CCOc1ccc(CCNC(=O)Cn2nnc(-c3ccc(C(F)(F)F)cc3)n2)cc1OCC 3.25%
CC(=O)N1c2ccc(S(=O)(=O)N3CCCCCC3)cc2CC1C(=O)NCc1ccccc1F (stereo unspecified) -1.25%
CCOc1ccc(OCC)c(Nc2cc(C)nc3nc(-c4ccco4)nn23)c1 -17.5%
CCC1(O)CC2CN(CCc3c([nH]c4ccccc34)[C@@](C(=O)OC)(c3cc4c(cc3OC)N(C=O)C3[C@]45CCN4CC=C[C@@](CC)([C@@H](OC(C)=O)[C@]3(O)C(=O)OC)[C@H]45)C2)C1 (stereo partly specified) -13%
Cc1ccc(CNc2ccc(-c3nc(-c4ccccn4)no3)cc2[N+](=O)[O-])cc1 -30.6%
O=C(c1ccc([N+](=O)[O-])cc1)N1CCN(c2ccc(Nc3ccccc3)nn2)CC1 -9.7%
CCOc1ccc(CCNC(=O)CN2C(=O)c3cccnc3Oc3ccc(Cl)cc32)cc1 -7.66%
CCOC(=O)c1c(S(=O)(=O)N2CCC(C(=O)Nc3ccc(OCC)cc3)CC2)c(C)n(C)c1C 0.349%
CCCCN(CCCC)CCNC(=O)c1cn(C)c2ccc(S(=O)(=O)N3CCCC3)cc2c1=O 1.13%
CCc1ccc(C2c3c(-c4cc(C)ccc4O)n[nH]c3C(=O)N2Cc2cccnc2)cc1 (stereo unspecified) -17.4%
Cc1ccc(OCc2nc(-c3ccc(C(=O)N4CCN(c5ccccc5)CC4)cc3)oc2C)cc1 4.7%
O=C(NCc1ccccc1Cl)c1ccc(Nc2nc3ccccc3n3nnnc23)cc1 -7.84%
COc1ccc(OC)c(NC(=O)N2c3ccccc3Sc3ccccc32)c1 -20.8%
Cc1c(NC(=O)Nc2ccc(F)c(Cl)c2)c(=O)n(-c2ccccc2)n1C -8.62%
Cc1nn(CCC(=O)N2CCN(c3ccccc3)CC2)c(C)c1S(=O)(=O)N1CCCC1 -18.9%
CCc1cnc2c(c1SCC(=O)N1CCC(C)CC1)c(=O)n(C)c(=O)n2C -12.3%
Cc1ccc(Cl)cc1N1CCN(C(=O)C2CCN(S(=O)(=O)c3ccc4c(c3)oc(=O)n4C)CC2)CC1 -5.98%
CC(=O)c1cccc(NC(=O)c2nc3ccccc3nc2N2CCCCC2)c1 -28.4%
O=C(Nc1ccc(F)cc1Cl)C1Cc2ccccc2N1C(=O)c1ccccc1 (stereo unspecified) -11.8%
O=C(CCn1nc(-c2ccc(Cl)cc2)c2ccccc2c1=O)Nc1ccc(OC(F)(F)F)cc1 -3.77%
COc1ccc(OC)c(CNC(=O)C2CCN(c3ncnc4c3nc3n4CCCCC3)CC2)c1 -12.6%
O=C(Nc1cc(F)ccc1F)c1cc2nc(-c3ccco3)cc(C(F)(F)Cl)n2n1 15.2%
COC(=O)c1cc(S(=O)(=O)NCC2CCN(Cc3ccccc3F)CC2)c[nH]1 0.997%
Cc1cc(C)c2c(n1)nn1c(C)c(CCC(=O)NCc3ccc(Cl)cc3)c(C)nc21 -14.1%
CN1C(=O)C2(c3ccccc31)N(c1ccc(F)c(Cl)c1)C(=O)CS2(=O)=O (stereo unspecified) -24.6%
Cc1ccc(C2=NN(CC(=O)NCCc3ccc(Cl)cc3)C(=O)CC2)cc1 -27.6%
CCC(=O)N1CCc2cc(S(=O)(=O)CCC(=O)N3CCN(c4ccc(C(C)=O)cc4)CC3)ccc21 20%
CCOc1ccc(-c2cn3c(n2)sc2cc(C(=O)NCCc4ccc(OC)c(OC)c4)ccc23)cc1 -6.13%
Cc1cccc(NC(=O)N2CCC(n3c(C)nc4cccnc43)CC2)c1 2.04%
COc1ccc(CCNC(=O)CCn2c(=O)c3cccn3c3cccnc32)c(OC)c1OC 6.07%
CCOC(=O)N1CCC(NC(=O)c2ccc3c(c2)N(Cc2cc(C)ccc2C)C(=O)c2ccccc2S3=O)CC1 (stereo unspecified) -3.69%
CCC(C)(C)NC(=O)Cn1c(=O)ccc2cc(S(=O)(=O)N3CCC(C)CC3)ccc21 -11%
O=C(CSc1nccn1Cc1ccccc1)Nc1ccc2c(c1)OCO2 -9.34%
CCOc1cc(C(=O)NCCc2csc(-c3ccc(C)cc3)n2)cc(OCC)c1OCC -12.3%
CN(C(=O)c1cc2c(=O)n3ccccc3nc2n1C)c1ccccc1 -15.6%
COc1cccc(CNC(=O)c2nn(C)c3c2CS(=O)(=O)c2ccccc2-3)c1 -7.95%
CCn1cc(C(=O)N2CCN(c3ccc(OC)cc3)CC2)c(=O)c2cc(S(=O)(=O)N(C)C3CCCCC3)ccc21 -3.09%
COc1ccc(NC(=O)CSC2=Nc3ccccc3C3=NC(CCC(=O)NCCc4ccccc4)C(=O)N23)c(OC)c1 (stereo unspecified) -35.5%
O=C(NCc1ccco1)c1ccc2c(c1)N(Cc1ccccc1F)C(=O)c1ccccc1S2=O (stereo unspecified) -10.3%
CC(=O)O[C@H]1CC[C@@]2(C)C(=CC[C@@H]3[C@@H]2CC[C@]2(C)C(C(C)=O)=CC[C@@H]32)C1 1.73%
Cc1cccc(OC(=O)c2cc(-c3ccc(Cl)cc3)on2)c1C 9.33%
COc1cccc(NC(=O)C(CCSC)NC(=O)C2CCC(C)CC2)c1 (stereo unspecified) -7.48%
CC(C)CN(CCCNC(=O)c1cn(C)c2ccc(S(=O)(=O)N(C)C3CCCCC3)cc2c1=O)CC(C)C -2.1%
COc1ccc(CNC(=O)c2cc(C)nc3c2c(C)nn3-c2cccc(Cl)c2C)cc1 -20.2%
CC(=O)c1cc2ccccc2s1 -3.7%
CC(C)[C@@H]1CC[C@@H](C)CC1=O 10.3%
COc1ccc(C)cc1NC(=O)CC(=O)Nc1ccc2nc3n(c(=O)c2c1)CCCCC3 29.9%
CCOc1ccc(S(=O)(=O)N(C(=O)c2ccncc2)c2ccc3oc(C)c(C(=O)OC)c3c2)cc1 -2.57%
CCOc1ccc(C2=CC(c3cc(Br)ccc3F)n3ncnc3N2)cc1Cl (stereo unspecified) -10.6%
CC(C)CSc1oc(-c2ccco2)nc1S(=O)(=O)c1ccc(Br)cc1 -32.3%
CCOc1ccc(-n2c(=O)c3c(C)c(C)sc3n(Cc3cc(=O)n4cc(Cl)ccc4n3)c2=O)cc1 -1.3%
CN(C(=O)CSc1nc2ccccc2n1Cc1cccc(C(F)(F)F)c1)c1ccccc1 -41.7%
Cc1nn(CC(=O)Nc2cccc(C(F)(F)F)c2)c(=O)c2nn(-c3ccccc3)c(C)c12 -9.99%
O=C(COC(=O)c1cc(-c2ccccc2)nc2c(Cl)cccc12)c1ccc(F)cc1 -7.84%
O=C(NCCc1csc(-c2ccc(F)cc2)n1)c1c(F)cccc1Cl 45.4%
CC(C)C(=O)Nc1cccc(C2CN3CCSC3=N2)c1 (stereo unspecified) -0.533%
Cc1ccc(-c2nc3ccccc3[nH]2)cc1NC(=O)COc1cccc(C)c1C 31.6%
COc1cc(CNc2ccc3[nH]c(=O)[nH]c3c2)cc(Cl)c1OCc1ccccc1F 35.9%
